In PubChem BioAssay AID540267 (National Center for Advancing Translational Sciences (NCATS), 2011):
The campaign covered roughly 340,000 compounds. About 530 (0.16%) were called active. Inconclusive means that the source gave no clear call. Such entries were picked first, then a sample of the others. No stated cut-off is given here; in the data, active means activity change below about -80%; inconclusive means between about -30% and that limit; inactive means weaker than that.

Assay: Small Molecules that selectively kill Giardia lamblia: qHTS;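 further: parasites exposed to compound for two days anaerobically before the ATP read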
Conditions: Giardia lamblia trophozoite viability; at 7.66 µM; hits give low values
Summary of the method: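 Trophozoite viability was measured as ATP-dependent luminescence, read 15-30 min after reagent addition. Before that, parasites at 100 cells/well were exposed to compounds for 48 h, anaerobically, at 37 deg C.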
On the % scale 0 is the no-effect control and ±100 the full control effect.

Q: Which activity change does the source give for `c1ccc(-c2ccc(-c3nc(-c4ccccn4)no3)cc2)cc1` here?
A: inconclusive: -73.4% [inhibitor]

Q: Which activity change does the source give for `CN(CC(=O)NNC(=O)c1cccnc1)S(=O)(=O)c1cc(Cl)ccc1Cl` here?
A: inconclusive: -32.8% [inhibitor]

Q: For `CC(=O)Nc1ccc(NC(=O)c2ccc(N(C)S(=O)(=O)c3ccc(C)cc3)cc2)cc1`, which activity change is on record?
A: inactive: -7.71%

Q: Which activity change does the source give for `O=[N+]([O-])c1nn(-c2ccc3c(c2)OCCO3)n(O)c1=NCc1ccccc1Cl` here?
A: inconclusive: -58.6% [inhibitor]

Q: With `O=C(NCCc1c[nH]c2ccccc12)Nc1ccccc1` as the compound, how does the activity change read?
A: inactive: -2.29%

Q: Which activity change does the source give for `N/C(Cc1ccc([N+](=O)[O-])cc1)=N\OC(=O)c1cccc(Br)c1` here?
A: inconclusive: -41.1% [inhibitor]

Q: With `Oc1ccccc1C1=NN(c2ccccc2)C(c2ccccc2)C1` (stereo not given) as the compound, how does the activity change read?
A: inconclusive: -30% [inhibitor]

Q: Which activity change does the source give for `Cc1ccc(Sc2nnc(-c3ccccc3)cc2C#N)cc1` here?
A: inactive: -1.72%

Q: With `Cc1ccc2[nH]c(C)c(CC(=O)NCc3ccccc3)c2c1` as the compound, how does the activity change read?
A: inactive: -18.2%

Q: With `COCCN(CCOC)C(=O)C1CCCN(S(=O)(=O)c2ccc(NC(=O)OC)cc2)C1` (stereo not given) as the compound, how does the activity change read?
A: inconclusive: -38.6% [inhibitor]

Q: For `Cc1cc(NC(=O)c2ccc(Cl)cc2Cl)n(-c2ccccc2)n1`, which activity change is on record?
A: inconclusive: -47.5% [inhibitor]

Q: With `CC12CCC(=O)C=C1CCC1C2CCC2(C)C1CC1C3C(=O)N(Cc4ccccc4)C(=O)C3CC(=O)C12` (stereo not given) as the compound, how does the activity change read?
A: inactive: -15.8%

Q: For `O=C(NC(=O)C(F)(F)F)Nc1ccc(S(=O)(=O)Nc2nccs2)cc1`, which activity change is on record?
A: inconclusive: -38.3% [inhibitor]

Q: For `COc1cccc(-c2cc(C(=O)Nc3nc4ccccc4s3)c3ccccc3n2)c1`, which activity change is on record?
A: inactive: -6.26%

Q: For `CC(=O)O[C@]1(C(C)=O)CCC2C3CCC4=C/C(=N/OCC(=O)O)CC[C@]4(C)C3CC[C@@]21C` (stereo not given in full), which activity change is on record?
A: inconclusive: -55.9% [inhibitor]

Q: Which activity change does the source give for `COc1cc(N=Nc2ccc(C)cc2S(N)(=O)=O)c(C)cc1N` here?
A: inconclusive: -30.8% [inhibitor]

Q: With `O=C(CSc1nnc(NC(=O)c2ccccc2F)s1)Nc1ccccc1F` as the compound, how does the activity change read?
A: inconclusive: -43.1% [inhibitor]

Q: With `COc1ccc(N=C2NC(=O)CS2)c([N+](=O)[O-])c1` as the compound, how does the activity change read?
A: inconclusive: -33.7% [inhibitor]

Q: For `CCOc1cc(C(=O)OCC(=O)Nc2ccc(Cl)cn2)ccc1OCC(=O)N1CCOCC1`, which activity change is on record?
A: inconclusive: -34.2% [inhibitor]

Q: With `Cc1cc(C)n(S(=O)(=O)c2ccc(F)cc2)n1` as the compound, how does the activity change read?
A: inconclusive: -32.2% [inhibitor]

Q: With `COc1ccc(-c2c(C)nn3c(Cl)c(C)c(C)nc23)cc1` as the compound, how does the activity change read?
A: inconclusive: -31.7% [inhibitor]

Q: With `FC(F)(F)c1cc(Cl)c2nc(-c3ccccc3)cn2c1` as the compound, how does the activity change read?
A: inactive: 3.07%

Q: With `N/C(=N\OC(=O)Cc1ccc(Cl)cc1)c1ccccn1` as the compound, how does the activity change read?
A: inconclusive: -33.1% [inhibitor]

Q: For `COc1ccc(-c2nnc(Nc3ccc(CC(N)=O)cc3)c3ccccc23)cc1`, which activity change is on record?
A: inconclusive: -35% [inhibitor]

Q: For `FC(F)(F)c1cccc(NC(=S)N2CCN(c3ccccn3)CC2)c1`, which activity change is on record?
A: inactive: -9.65%

Q: For `C/C(=C\C(=O)c1ccccc1)NNC(=O)c1ccc(Cl)cc1`, which activity change is on record?
A: inconclusive: -31.1% [inhibitor]

Q: Which activity change does the source give for `COc1ccc(C)cc1Nc1n[n+](-c2ccccc2)c(-c2ccc(NC(C)=O)cc2)s1` here?
A: inconclusive: -36.4% [inhibitor]

Q: Which activity change does the source give for `Cc1ccc(OCC(=O)N/N=C/c2ccccc2)c([N+](=O)[O-])c1` here?
A: inactive: 20.6%

Q: Which activity change does the source give for `COc1ccc2[nH]cc(CCNS(=O)(=O)c3ccccc3)c2c1` here?
A: inconclusive: -34.7% [inhibitor]

Q: For `Cc1ccc(CN=c2c([N+](=O)[O-])nn(-c3ccc(Cl)cc3)n2O)cc1`, which activity change is on record?
A: inconclusive: -76.6% [inhibitor]

Q: For `O=S(=O)(Nc1ccc2c(c1)OCO2)c1ccc(Cl)cc1F`, which activity change is on record?
A: inconclusive: -42.1% [inhibitor]

Q: Which activity change does the source give for `CC(CNC(=O)Cn1ccc2cc(S(=O)(=O)N3CCCC3)ccc21)c1ccccc1` (stereo not given) here?
A: inactive: 4.19%

Q: Which activity change does the source give for `O=C1C(=O)N(c2ccccn2)C(c2ccc(F)cc2)/C1=C(/O)c1ccc(Br)cc1` (stereo not given) here?
A: inconclusive: -32.7% [inhibitor]

Q: With `COC(=O)c1cc(C(=O)c2cc(F)ccc2O)cn2c(=O)c3c(C)c(C)sc3nc12` as the compound, how does the activity change read?
A: inconclusive: -35.2% [inhibitor]

Q: With `COc1cc(NC(=O)c2ccc3c(SCC(=O)O)c4c(nc3c2)CCCC4)cc(OC)c1OC` as the compound, how does the activity change read?
A: inconclusive: -31.8% [inhibitor]

Q: For `CN1C(=O)C(C)(C)c2cc(S(=O)(=O)NCC(=O)NCc3ccccc3)ccc21`, which activity change is on record?
A: inconclusive: -37.5% [inhibitor]

Q: For `O=C(NCc1ccccn1)c1cc(-c2ccc(-c3ccccc3)cc2)nc2ccccc12`, which activity change is on record?
A: inconclusive: -31.9% [inhibitor]

Q: With `O=C(Nc1ccc2c(c1)OCCO2)c1cncc(Br)c1` as the compound, how does the activity change read?
A: inconclusive: -30.6% [inhibitor]

Q: With `CCOC(=O)c1cnc2c(ccc3ccccc32)c1NCCN(C)C` as the compound, how does the activity change read?
A: inconclusive: -30.6% [inhibitor]

Q: Which activity change does the source give for `Cc1ccc(C(=O)N/N=C\c2ccc([N+](=O)[O-])s2)cn1` here?
A: inconclusive: -68% [inhibitor]

Q: With `CC(C)OCCCNC(=O)c1cccc2c1C(=O)c1ccc(Cl)cc1S2(=O)=O` as the compound, how does the activity change read?
A: inconclusive: -40.8% [inhibitor]

Q: For `Cc1ccsc1/C=N/n1c(=S)[nH]nc(C)c1=O`, which activity change is on record?
A: inconclusive: -35.6% [inhibitor]

Q: Which activity change does the source give for `Cc1ccc(S(=O)(=O)N2CCN(c3nc(-c4cncs4)nc4ccccc34)CC2)cc1` here?
A: inconclusive: -36.1% [inhibitor]

Q: Which activity change does the source give for `Cc1ccc(S(=O)(=O)Nc2c(C)n(C)n(-c3ccccc3)c2=O)cc1C(=O)NCc1ccccc1` here?
A: inconclusive: -36.4% [inhibitor]

Q: With `O=[N+]([O-])c1ccc(/C=C/C2=NN(c3ccccc3)C(c3ccco3)C2)o1` (stereo not given) as the compound, how does the activity change read?
A: inconclusive: -78.5% [inhibitor]

Q: With `Cc1nn(Cc2ccc(Cl)cc2)c(C)c1NC(=O)C1CC=CCC1C(=O)O` (stereo not given) as the compound, how does the activity change read?
A: inactive: 2.43%

Q: With `O=C(CNC(=O)c1ccccc1Cl)OC1CCOC1=O` (stereo not given) as the compound, how does the activity change read?
A: inconclusive: -35% [inhibitor]

Q: Which activity change does the source give for `O=C(NC(=S)N(CC1CCC1)CC1CCCO1)c1cccc([N+](=O)[O-])c1` (stereo not given) here?
A: inconclusive: -30.4% [inhibitor]

Q: For `CN(C)c1cccc(C(=O)Nc2ccc(N3CCOCC3)cc2)c1`, which activity change is on record?
A: inconclusive: -31.7% [inhibitor]

Q: With `COc1ccc(Nc2nc(N)c([N+](=O)[O-])c(NCCO)n2)cc1` as the compound, how does the activity change read?
A: inactive: 30.6%

Q: For `O=C(c1ccnc(Cl)c1)N1CCCC(N2CCN(c3ccccc3F)CC2)C1` (stereo not given), which activity change is on record?
A: inconclusive: -37.5% [inhibitor]

Q: With `CCOc1ncccc1C(=O)OCc1c(F)cccc1Cl` as the compound, how does the activity change read?
A: inactive: -5.55%

Q: With `Cc1cccc(CCNC(=O)CCS(=O)(=O)c2ccc3nc(C)sc3c2)c1` as the compound, how does the activity change read?
A: inconclusive: -30.9% [inhibitor]

Q: With `CN(C)C(=O)CCc1ccc2c3c([nH]c2c1)[C@]1(CCC2CCCC2)[C@@H](C(=O)N2CCOCC2)C[C@H](CC(=O)NC(C)(C)C)C(=O)N1CC3` as the compound, how does the activity change read?
A: inactive: -4.98%

Q: Which activity change does the source give for `N#C/C(=C\Nc1ccc(Cl)cc1)S(=O)(=O)c1ccccn1` here?
A: inconclusive: -32.7% [inhibitor]

Q: Which activity change does the source give for `CC(=O)Nc1ccc(NC(=O)CSc2ncc(C(=O)Nc3ccccc3)c(=O)n2C)cc1` here?
A: inactive: 3.38%

Q: With `COc1ccc(/C=C2\CCc3c2nc2ccccc2c3C(=O)O)cc1OC` as the compound, how does the activity change read?
A: inconclusive: -45.7% [inhibitor]

Q: For `N#C/C(=C(/O)COC(=O)COc1cccc(Br)c1)c1nc2ccccc2[nH]1`, which activity change is on record?
A: inconclusive: -35.1% [inhibitor]

Q: With `O=C(COc1cccnc1[N+](=O)[O-])Nc1ccc2c(c1)CCC2` as the compound, how does the activity change read?
A: inconclusive: -50.2% [inhibitor]

Q: With `N#Cc1c(Nc2cccc(F)c2)sc2c(O)cc(=O)[nH]c12` as the compound, how does the activity change read?
A: inconclusive: -34.3% [inhibitor]

Q: With `Cc1cc(C)c(S(=O)(=O)Nc2ccccc2C(=O)N2CCOCC2)c(C)c1` as the compound, how does the activity change read?
A: inactive: -15.6%

Q: With `Cc1ccc(C(=O)N/C(=C\C=C\c2ccccc2)C(=O)NCc2ccco2)cc1` as the compound, how does the activity change read?
A: inactive: 3.88%

Q: With `COc1ccc(-c2nc(-c3ccccc3)no2)c(OC)c1` as the compound, how does the activity change read?
A: inconclusive: -31.1% [inhibitor]

Q: With `CC(C(=O)Nc1cccc(Br)c1)c1ccc([N+](=O)[O-])cc1` (stereo not given) as the compound, how does the activity change read?
A: inconclusive: -40.4% [inhibitor]

Q: With `COCCn1c(=NC(=O)CSCC(=O)N2CCOCC2)sc2cc(C)ccc21` as the compound, how does the activity change read?
A: inactive: 6.09%

Q: For `Cc1cc(C(=O)Nc2cccc(S(=O)(=O)N3CCOCC3)c2)c2ccccc2n1`, which activity change is on record?
A: inactive: -5.61%

Q: For `COc1ccc(-c2ccc3oc(-c4ccsc4)cc(=O)c3c2)cn1`, which activity change is on record?
A: inconclusive: -35.2% [inhibitor]

Q: Which activity change does the source give for `COc1ccc(CCNC(=O)COC(=O)C2COc3ccccc3O2)cc1` (stereo not given) here?
A: inconclusive: -35% [inhibitor]

Q: Which activity change does the source give for `O=C(Nc1nc2ccccc2[nH]1)C1CCCC1` here?
A: inconclusive: -32.3% [inhibitor]

Q: For `O=C(NCc1ccccc1Cl)c1cc([N+](=O)[O-])ccc1Cl`, which activity change is on record?
A: inconclusive: -33% [inhibitor]

Q: Which activity change does the source give for `Cn1nc(-c2ccc(F)cc2)nc2c(=O)n(C)c(=O)nc1-2` here?
A: active: -88.7%

Q: With `N#CC1C=Cc2ccccc2N1C(=O)c1ccccc1` (stereo not given) as the compound, how does the activity change read?
A: inactive: -29.4%

Q: Which activity change does the source give for `Cc1ccc(NN=C2C(=O)OC(C)(C)OC2=O)c(C)c1` here?
A: inconclusive: -37.8% [inhibitor]

Q: Which activity change does the source give for `CCOc1ccc(C2C(C(C)=O)=C(O)C(=O)N2CCc2c[nH]c3ccccc23)cc1` (stereo not given) here?
A: inactive: 3.21%

Q: With `O=C(O)c1ccc(Nc2ncnc3scc(-c4ccccc4)c23)cc1` as the compound, how does the activity change read?
A: inconclusive: -39.4% [inhibitor]
